Measured values from US11807625B2, “Capsid inhibitors for the prevention of HIV” (Gilead Sciences, Inc., priority 2019, dated 2023).
Values joined by “and” are separate entries in the source; they are usually repeats but may differ in a detail not shown here. Equal entries are not always repeated. The source gives many values for each of these; only a part stands here.

Assay: PK of compound of Formula (Ia) after single subcutaneous dose of solution formulations in beagle dogs
Assay type: in vivo
Experimental: Formulations containing the compound of Formula (Ia), or a pharmaceutically acceptable salt thereof, were prepared as solutions and optionally administered subcutaneously or intramuscularly to rats, rabbits, and/or dogs.
(§1) A solution of about 400 mg/mL of the compound of Formula (Ia) having 17.00 w/w % water, 36.40 w/w % PEG 300, 35.20 w/w % of a sodium salt of a compound of Formula (Ia), 5.00 w/w % ethanol, and 6.40 w/w % poloxamer 188 was prepared. The solution was administered subcutaneously to male beagle dogs at a dose level of about 12 mg/kg and male Wistar Han rats at a dose level of about 50 mg/kg. The pharmacokinetic profiles were determined, and the results for dogs are summarized in Table and Table, while the results for rats are summarized in Table and Table below.
as §1, with “500” for “400”, “14.06” for “17.00”, “30.12” for “36.40”
A solution of about 300 mg/mL of the compound of Formula (Ia) having 23.33 w/w % water, 48.99 w/w % PEG 300, 26.47 w/w % of a sodium salt of a compound of Formula (Ia), and 1.21 w/w % poloxamer 188 was prepared. The solution was administered subcutaneously to male beagle dogs at a dose level of about 6 mg/kg and male Wistar Han rats at a dose level of about 50 mg/kg. The pharmacokinetic profiles were determined, and the results for dogs are summarized in Table and Table, while the results for rats are summarized in Table and Table below.
as §1, with “18.80” for “17.00”, “40.25” for “36.40”, “34.38” for “35.20”, “1.57” for “6.40”
as §1, with “500” for “400”, “16.29” for “17.00”, “34.88” for “36.40”, “41.92” for “35.20”, “1.91” for “6.40”
as §1, with “20.90” for “17.00”, “44.72” for “36.40”, “and 34.38” for “35.20”, “(Ia)” for “(Ia), 5.00 w/w % ethanol, and 6.40 w/w % poloxamer 188”
A solution of about 400 mg/mL of the compound of Formula (Ia) having 19.90 w/w % water, 42.59 w/w % PEG 300, 34.38 w/w % of a sodium salt of a compound of Formula (Ia), and 3.13 w/w % poloxamer 188 was prepared. The solution was administered subcutaneously to male beagle dogs at a dose level of about 12 mg/kg and male Wistar Han rats at a dose level of about 50 mg/kg. […]

CC(C)(C#Cc1ccc(-c2ccc(Cl)c3c(NS(C)(=O)=O)nn(CC(F)(F)F)c23)c([C@H](Cc2cc(F)cc(F)c2)NC(=O)Cn2nc(C(F)(F)F)c3c2C(F)(F)[C@@H]2C[C@H]32)n1)S(C)(=O)=O [compound of Formula (Ia)]
Plasma concentration (336 h, individual dogs, SC 6 mg/kg, solution V, 300 mg/mL, 6 mg/kg): 125 nM and 164 nM
Plasma concentration (504 h, individual dogs, SC 6 mg/kg, solution V, 300 mg/mL, 6 mg/kg): 179 nM and 151 nM
Plasma concentration (672 h, individual dogs, SC 6 mg/kg, solution V, 300 mg/mL, 6 mg/kg): 135 nM
Plasma concentration (840 h, individual dogs, SC 6 mg/kg, solution V, 300 mg/mL, 6 mg/kg): 51.7 nM and 71.6 nM
Plasma concentration (1008 h, individual dogs, SC 6 mg/kg, solution V, 300 mg/mL, 6 mg/kg): 32.0 nM and 29.6 nM
Plasma concentration (1344 h, individual dogs, SC 6 mg/kg, solution V, 300 mg/mL, 6 mg/kg): 22.1 nM and 22.5 nM
Plasma concentration (1680 h, individual dogs, SC 6 mg/kg, solution V, 300 mg/mL, 6 mg/kg): 9.9 nM and 13.4 nM
Plasma concentration (2016 h, individual dogs, SC 6 mg/kg, solution V, 300 mg/mL, 6 mg/kg): 8.9 nM and 5.4 nM and 11.1 nM
Plasma concentration (2352 h, individual dogs, SC 6 mg/kg, solution V, 300 mg/mL, 6 mg/kg): 4.2 nM and 5.4 nM
Plasma concentration (2688 h, individual dogs, SC 6 mg/kg, solution V, 300 mg/mL, 6 mg/kg): 2.0 nM and 4.0 nM
Plasma concentration (3024 h, individual dogs, SC 6 mg/kg, solution V, 300 mg/mL, 6 mg/kg): 1.6 nM and 2.9 nM
Plasma concentration (3360 h, individual dogs, SC 6 mg/kg, solution V, 300 mg/mL, 6 mg/kg): 1.3 nM and 1.2 nM
Plasma concentration (beagle dogs, SC 12 mg/kg, 400 mg/mL solution AA (6.25% poloxamer 188), 24.0 h, animals #1-#3, 12 mg/kg): 98.3 nM and 187 nM
Plasma concentration (beagle dogs, SC 12 mg/kg, 400 mg/mL solution AA (6.25% poloxamer 188), 48.0 h, animals #1-#3, 12 mg/kg): 148 nM and 194 nM
Plasma concentration (beagle dogs, SC 12 mg/kg, 400 mg/mL solution AA (6.25% poloxamer 188), 96.0 h, animals #1-#3, 12 mg/kg): 141 nM and 258 nM
Plasma concentration (beagle dogs, SC 12 mg/kg, 400 mg/mL solution AA (6.25% poloxamer 188), 168 h, animals #1-#3, 12 mg/kg): 88.7 nM and 108 nM
Plasma concentration (beagle dogs, SC 12 mg/kg, 400 mg/mL solution AA (6.25% poloxamer 188), 336 h, animals #1-#3, 12 mg/kg): 147 nM
Plasma concentration (beagle dogs, SC 12 mg/kg, 400 mg/mL solution AA (6.25% poloxamer 188), 504 h, animals #1-#3, 12 mg/kg): 202 nM and 105 nM
Plasma concentration (beagle dogs, SC 12 mg/kg, 400 mg/mL solution AA (6.25% poloxamer 188), 672 h, animals #1-#3, 12 mg/kg): 161 nM and 232 nM
Plasma concentration (beagle dogs, SC 12 mg/kg, 400 mg/mL solution AA (6.25% poloxamer 188), 840 h, animals #1-#3, 12 mg/kg): 99.7 nM and 124 nM
Plasma concentration (beagle dogs, SC 12 mg/kg, 400 mg/mL solution AA (6.25% poloxamer 188), 1008 h, animals #1-#3, 12 mg/kg): 84.5 nM and 94.2 nM
Plasma concentration (beagle dogs, SC 12 mg/kg, 400 mg/mL solution AA (6.25% poloxamer 188), 1334 h, animals #1-#3, 12 mg/kg): 54.6 nM and 52.4 nM
Plasma concentration (beagle dogs, SC 12 mg/kg, 400 mg/mL solution AA (6.25% poloxamer 188), 1680 h, animals #1-#3, 12 mg/kg): 26.5 nM and 33.5 nM
Plasma concentration (beagle dogs, SC 12 mg/kg, 400 mg/mL solution AA (6.25% poloxamer 188), 2016 h, animals #1-#3, 12 mg/kg): 18.6 nM and 17.4 nM
Plasma concentration (beagle dogs, SC 12 mg/kg, 400 mg/mL solution W (5.00% ethanol, 1.57% poloxamer 188), 3.00 h, animals #1-#3, 12 mg/kg): 2.80 nM and 5.26 nM
Plasma concentration (beagle dogs, SC 12 mg/kg, 400 mg/mL solution W (5.00% ethanol, 1.57% poloxamer 188), 24.0 h, animals #1-#3, 12 mg/kg): 27.0 nM and 50.9 nM
Plasma concentration (beagle dogs, SC 12 mg/kg, 400 mg/mL solution W (5.00% ethanol, 1.57% poloxamer 188), 1008 h, animals #1-#3, 12 mg/kg): 55.3 nM and 79.1 nM
Plasma concentration (beagle dogs, SC 12 mg/kg, 400 mg/mL solution W (5.00% ethanol, 1.57% poloxamer 188), 1344 h, animals #1-#3, 12 mg/kg): 105 nM and 64.9 nM
Plasma concentration (beagle dogs, SC 12 mg/kg, 400 mg/mL solution W (5.00% ethanol, 1.57% poloxamer 188), 1680 h, animals #1-#3, 12 mg/kg): 42.5 nM and 33.3 nM
Plasma concentration (beagle dogs, SC 12 mg/kg, 400 mg/mL solution W (5.00% ethanol, 1.57% poloxamer 188), 2016 h, animals #1-#3, 12 mg/kg): 46.8 nM and 33.3 nM
Plasma concentration (beagle dogs, SC 12 mg/kg, 400 mg/mL solution W (5.00% ethanol, 1.57% poloxamer 188), 2352 h, animals #1-#3, 12 mg/kg): 29.2 nM and 19.7 nM
Plasma concentration (beagle dogs, SC 12 mg/kg, 400 mg/mL solution W (5.00% ethanol, 1.57% poloxamer 188), 2688 h, animals #1-#3, 12 mg/kg): 18.3 nM and 11.6 nM
Plasma concentration (beagle dogs, SC 12 mg/kg, 400 mg/mL solution W (5.00% ethanol, 1.57% poloxamer 188), 3024 h, animals #1-#3, 12 mg/kg): 14.8 nM and 8.8 nM
Plasma concentration (beagle dogs, SC 12 mg/kg, 400 mg/mL solution W (5.00% ethanol, 1.57% poloxamer 188), 3360 h, animals #1-#3, 12 mg/kg): 10.0 nM and 5.4 nM
Plasma concentration (beagle dogs, SC 12 mg/kg, 400 mg/mL solution Y (water, PEG 300), 72.0 h, animals #1-#3, 12 mg/kg): 60.2 nM and 41.7 nM
Plasma concentration (beagle dogs, SC 12 mg/kg, 400 mg/mL solution Y (water, PEG 300), 96.0 h, animals #1-#3, 12 mg/kg): 61.3 nM and 40.0 nM
Plasma concentration (beagle dogs, SC 12 mg/kg, 400 mg/mL solution Y (water, PEG 300), 168 h, animals #1-#3, 12 mg/kg): 49.2 nM and 53.1 nM
Plasma concentration (beagle dogs, SC 12 mg/kg, 400 mg/mL solution Y (water, PEG 300), 336 h, animals #1-#3, 12 mg/kg): 145 nM and 185 nM
Plasma concentration (beagle dogs, SC 12 mg/kg, 400 mg/mL solution Y (water, PEG 300), 504 h, animals #1-#3, 12 mg/kg): 230 nM and 267 nM
Plasma concentration (beagle dogs, SC 12 mg/kg, 400 mg/mL solution Y (water, PEG 300), 672 h, animals #1-#3, 12 mg/kg): 182 nM and 204 nM
Plasma concentration (beagle dogs, SC 12 mg/kg, 400 mg/mL solution Y (water, PEG 300), 840 h, animals #1-#3, 12 mg/kg): 116 nM and 118 nM
Plasma concentration (beagle dogs, SC 12 mg/kg, 400 mg/mL solution Y (water, PEG 300), 1008 h, animals #1-#3, 12 mg/kg): 83.6 nM and 84.7 nM
Plasma concentration (beagle dogs, SC 12 mg/kg, 400 mg/mL solution Y (water, PEG 300), 1334 h, animals #1-#3, 12 mg/kg): 49.0 nM and 55.0 nM
Plasma concentration (beagle dogs, SC 12 mg/kg, 400 mg/mL solution Y (water, PEG 300), 1680 h, animals #1-#3, 12 mg/kg): 26.1 nM and 32.0 nM
Plasma concentration (beagle dogs, SC 12 mg/kg, 400 mg/mL solution Y (water, PEG 300), 2016 h, animals #1-#3, 12 mg/kg): 16.0 nM and 22.2 nM
Plasma concentration (beagle dogs, SC 12 mg/kg, 400 mg/mL solution Y (water, PEG 300), 2352 h, animals #1-#3, 12 mg/kg): 14.0 nM
Plasma concentration (beagle dogs, SC 12 mg/kg, 400 mg/mL solution Y (water, PEG 300), 2688 h, animals #1-#3, 12 mg/kg): 10.3 nM and 9.88 nM
Plasma concentration (beagle dogs, SC 12 mg/kg, 400 mg/mL solution Y (water, PEG 300), 3024 h, animals #1-#3, 12 mg/kg): 6.06 nM and 6.84 nM
Plasma concentration (beagle dogs, SC 12 mg/kg, 400 mg/mL solution Z (3.13% poloxamer 188), 72.0 h, animals #1-#3, 12 mg/kg): 46.5 nM and 59.0 nM
Plasma concentration (beagle dogs, SC 12 mg/kg, 400 mg/mL solution Z (3.13% poloxamer 188), 504 h, animals #1-#3, 12 mg/kg): 162 nM and 221 nM
Plasma concentration (beagle dogs, SC 12 mg/kg, 400 mg/mL solution Z (3.13% poloxamer 188), 672 h, animals #1-#3, 12 mg/kg): 133 nM and 75.2 nM
Plasma concentration (beagle dogs, SC 12 mg/kg, 400 mg/mL solution Z (3.13% poloxamer 188), 840 h, animals #1-#3, 12 mg/kg): 112 nM and 68.2 nM
Plasma concentration (beagle dogs, SC 12 mg/kg, 400 mg/mL solution Z (3.13% poloxamer 188), 1008 h, animals #1-#3, 12 mg/kg): 83.7 nM and 62.8 nM
Plasma concentration (beagle dogs, SC 12 mg/kg, 400 mg/mL solution Z (3.13% poloxamer 188), 1334 h, animals #1-#3, 12 mg/kg): 52.8 nM and 46.1 nM
Plasma concentration (beagle dogs, SC 12 mg/kg, 400 mg/mL solution Z (3.13% poloxamer 188), 3024 h, animals #1-#3, 12 mg/kg): 6.54 nM and 6.65 nM
Plasma concentration (beagle dogs, SC 12 mg/kg, 500 mg/mL solution X (5.00% ethanol, 1.91% poloxamer 188), 3.00 h, animals #1-#3, 12 mg/kg): 16.3 nM and 9.86 nM
Plasma concentration (beagle dogs, SC 12 mg/kg, 500 mg/mL solution X (5.00% ethanol, 1.91% poloxamer 188), 8.00 h, animals #1-#3, 12 mg/kg): 34.2 nM and 21.8 nM
Plasma concentration (beagle dogs, SC 12 mg/kg, 500 mg/mL solution X (5.00% ethanol, 1.91% poloxamer 188), 24.0 h, animals #1-#3, 12 mg/kg): 51.1 nM and 35.2 nM
Plasma concentration (beagle dogs, SC 12 mg/kg, 500 mg/mL solution X (5.00% ethanol, 1.91% poloxamer 188), 48.0 h, animals #1-#3, 12 mg/kg): 59.5 nM and 34.8 nM
Plasma concentration (beagle dogs, SC 12 mg/kg, 500 mg/mL solution X (5.00% ethanol, 1.91% poloxamer 188), 72.0 h, animals #1-#3, 12 mg/kg): 33.0 nM and 54.0 nM
